{
  "source": "the supplement of paper PMC8728848",
  "binders": {"B1": {"name": "Epa1-NP (Candida glabrata), Q6VBJ0 (protein)", "chain": "MILNPALFLNKCVCIYTTLILLLLTNGGYATSSNDISLASKDPTTFPLGCSPDITTPKKGLSMELYSYDFRKKGSYPCWDAAYLDPNYPRTGYKSHRLLAKVDGVTGNINFYYHATKGCTPQLGHLPASYNYPKPLTMTNFTMLLYGYFRPKVTGFHTFTISADDLLFVNFGAGNAFDCCRRDSSADHFGNYQAYAIWGSKTAKDELTVHLDAGVYYPIRLFYNNREYDGALSFTFKTESNENTVSDFSEYFFSLDDTEEGCPGLISYDSSCASVKTSKIIGIDYHTETPNENLVPITKTIYHLGIPCTGTTTTPLCGSGFYDPLANKCVTINTSSTSSVTKTTSHTTSKEVSFHSSISSQKTLIPKSIPSPYGPIKSQSIPTEMETSSEISSSEYAFSDVISTPSHSPYTKKHSSLNSSSYTSTVIHSLTSYSISQGIFSTSLSEQNITSKSSTDKFSTATSMSNNITQSSIIISQFSTNNENYTTTSMHTSSDKISTETLNNSISTTTSILFSNSSTILKNNTTIISSDKDTHYHPVNPTIVCSTNKTEIICASITQPSISNSNNHWSSSVLKFNSTTVRSTLPSSAGSNETSINVPFSSSTESNTSTSSTSTSNSKMVRSTLPSSAGSNETSISVPFSSSTESNTSTSSTSTSNSKMVRSTLPSSAGSNETSINVPFSSSTESNTSTSSTSTSNSKTVRSTPFSSAGIIMTSLSQRNNKSASSYASSNSKCYNTADSCRKVHSTPSYLLTSSYTSEGVDYDCSLVSTKLKINDTNCVNNKHTTKSCLKTSVTTTIPTLEIKTARKSSSNTIGLHSYPTSSPNKSISSAPIIGYISSFKTIKTASPSYQTSDLTTITTITSLNNPGSTAVENTHESNDKSRKTSSNDISSKHSVIKETKDAVESSNKSHQTNTLKCSSIIIASSSHNSYESLGGTTLTLTLSKVYSPQNNDTLPFLEISEVNPSRTVLPESSKMMQYLTSTEERNKTARNTIATNIVSISTFHFEGEGNAIRMGYTQLLLMLIGIIVMNIGT"}},
  "assay_in_all_cases": "glycan array binding signal (z-score within array); higher = stronger binding",
  "details_in_all_cases": "glycan notation: IUPAC condensed, linker removed",
  "key": {"[1]": {"target": "Fuc(a1-3)[GalNAc(b1-4)]Gal(b1-4)GlcNAc", "summary_of_the_method": "(§1)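 Glycan array data came from 3228 arrays in the Consortium for Functional Glycomics database, and only arrays with an available protein sequence were kept. Glycan names were put into IUPAC-condensed notation, and columns mapping to the same glycan were averaged. The binding signal is a within-array Z-score, averaged across arrays of one protein sequence run at different concentrations or buffers and across linkers. A negative Z-score can be read as non-binding.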"}, "[2]": {"target": "Fuc(a1-3)[GalNAc(b1-4)]GlcNAc", "summary_of_the_method": "as §1"}, "[3]": {"target": "Fuc(a1-3)[GalNAc(b1-4)]GlcNAc6S", "summary_of_the_method": "as §1"}, "Fuc(a1-4)GlcNAc": {"target": "Fuc(a1-4)GlcNAc", "summary_of_the_method": "as §1"}, "Fuc(b1-3)GlcNAc": {"target": "Fuc(b1-3)GlcNAc", "summary_of_the_method": "as §1"}, "Gal(a1-2)Gal": {"target": "Gal(a1-2)Gal", "summary_of_the_method": "as §1"}, "Gal(a1-3)Gal": {"target": "Gal(a1-3)Gal", "summary_of_the_method": "as §1"}, "Gal(a1-3)Gal(b1-3)Glc": {"target": "Gal(a1-3)Gal(b1-3)Glc", "summary_of_the_method": "as §1"}, "Gal(a1-3)Gal(b1-3)GlcNAc": {"target": "Gal(a1-3)Gal(b1-3)GlcNAc", "summary_of_the_method": "as §1"}, "[4]": {"target": "Gal(a1-3)Gal(b1-3)GlcNAc(b1-2)Man", "summary_of_the_method": "as §1"}, "[5]": {"target": "Gal(a1-3)Gal(b1-3)GlcNAc(b1-2)Man(a1-3)[Gal(a1-3)Gal(b1-3)GlcNAc(b1-2)Man(a1-6)]Man(b1-4)GlcNAc(b1-4)GlcNAc", "summary_of_the_method": "as §1"}, "[6]": {"target": "Gal(a1-3)Gal(b1-3)GlcNAc(b1-3)GalNAc", "summary_of_the_method": "as §1"}, "[7]": {"target": "Gal(a1-3)Gal(b1-3)GlcNAc(b1-6)GalNAc", "summary_of_the_method": "as §1"}, "[8]": {"target": "Gal(a1-3)Gal(b1-3)[Fuc(a1-4)]GlcNAc(b1-2)Man(a1-3)[Gal(a1-3)Gal(b1-3)[Fuc(a1-4)]GlcNAc(b1-2)Man(a1-6)]Man(b1-4)GlcNAc(b1-4)GlcNAc", "summary_of_the_method": "as §1"}, "Gal(a1-3)Gal(b1-4)Glc": {"target": "Gal(a1-3)Gal(b1-4)Glc", "summary_of_the_method": "as §1"}, "Gal(a1-3)Gal(b1-4)GlcNAc": {"target": "Gal(a1-3)Gal(b1-4)GlcNAc", "summary_of_the_method": "as §1"}, "[9]": {"target": "Gal(a1-3)Gal(b1-4)GlcNAc(b1-2)Man", "summary_of_the_method": "as §1"}, "[10]": {"target": "Gal(a1-3)Gal(b1-4)GlcNAc(b1-2)Man(a1-3)[Gal(a1-3)Gal(b1-4)GlcNAc(b1-2)Man(a1-6)]Man(b1-4)GlcNAc(b1-4)GlcNAc", "summary_of_the_method": "as §1"}, "[11]": {"target": "Gal(a1-3)Gal(b1-4)GlcNAc(b1-3)GalNAc", "summary_of_the_method": "as §1"}, "[12]": {"target": "Gal(a1-3)Gal(b1-4)GlcNAc(b1-6)GalNAc", "summary_of_the_method": "as §1"}, "[13]": {"target": "Gal(a1-3)Gal(b1-4)[Fuc(a1-3)]GalNAc", "summary_of_the_method": "as §1"}, "[14]": {"target": "Gal(a1-3)Gal(b1-4)[Fuc(a1-3)]GlcNAc", "summary_of_the_method": "as §1"}, "[15]": {"target": "Gal(a1-3)Gal(b1-4)[Fuc(a1-3)]GlcNAc(b1-2)Man(a1-3)[Gal(a1-3)Gal(b1-4)[Fuc(a1-3)]GlcNAc(b1-2)Man(a1-6)]Man(b1-4)GlcNAc(b1-4)GlcNAc", "summary_of_the_method": "as §1"}, "Gal(a1-3)GalNAc": {"target": "Gal(a1-3)GalNAc", "summary_of_the_method": "as §1"}, "Gal(a1-3)GlcNAc": {"target": "Gal(a1-3)GlcNAc", "summary_of_the_method": "as §1"}, "[16]": {"target": "Gal(a1-3)[Gal(a1-4)]Gal(b1-4)GlcNAc", "summary_of_the_method": "as §1"}, "[17]": {"target": "Gal(a1-4)Gal(b1-3)GlcNAc(b1-2)Man(a1-3)[Gal(a1-4)Gal(b1-3)GlcNAc(b1-2)Man(a1-6)]Man(b1-4)GlcNAc(b1-4)GlcNAc", "summary_of_the_method": "as §1"}, "Gal(a1-4)Gal(b1-4)Gal": {"target": "Gal(a1-4)Gal(b1-4)Gal", "summary_of_the_method": "as §1"}, "Gal(a1-4)Gal(b1-4)GalNAc": {"target": "Gal(a1-4)Gal(b1-4)GalNAc", "summary_of_the_method": "as §1"}, "Gal(a1-4)Gal(b1-4)Glc": {"target": "Gal(a1-4)Gal(b1-4)Glc", "summary_of_the_method": "as §1"}},
  "note": "The list shows a part of the results.",
  "data": [
    {"binder": "B1", "values": [
      {"measurement": "glycan array binding signal (z-score)", "setting": "[1]", "result": -0.555},
      {"measurement": "glycan array binding signal (z-score)", "setting": "[2]", "result": -0.265},
      {"measurement": "glycan array binding signal (z-score)", "setting": "[3]", "result": -0.286},
      {"measurement": "glycan array binding signal (z-score)", "setting": "Fuc(a1-4)GlcNAc", "result": -0.341},
      {"measurement": "glycan array binding signal (z-score)", "setting": "Fuc(b1-3)GlcNAc", "result": -0.324},
      {"measurement": "glycan array binding signal (z-score)", "setting": "Gal(a1-2)Gal", "result": -0.225},
      {"measurement": "glycan array binding signal (z-score)", "setting": "Gal(a1-3)Gal", "result": -0.03},
      {"measurement": "glycan array binding signal (z-score)", "setting": "Gal(a1-3)Gal(b1-3)Glc", "result": -0.55},
      {"measurement": "glycan array binding signal (z-score)", "setting": "Gal(a1-3)Gal(b1-3)GlcNAc", "result": -0.141},
      {"measurement": "glycan array binding signal (z-score)", "setting": "[4]", "result": -0.283},
      {"measurement": "glycan array binding signal (z-score)", "setting": "[5]", "result": -0.164},
      {"measurement": "glycan array binding signal (z-score)", "setting": "[6]", "result": -0.246},
      {"measurement": "glycan array binding signal (z-score)", "setting": "[7]", "result": -0.284},
      {"measurement": "glycan array binding signal (z-score)", "setting": "[8]", "result": -0.276},
      {"measurement": "glycan array binding signal (z-score)", "setting": "Gal(a1-3)Gal(b1-4)Glc", "result": -0.258},
      {"measurement": "glycan array binding signal (z-score)", "setting": "Gal(a1-3)Gal(b1-4)GlcNAc", "result": 0.167},
      {"measurement": "glycan array binding signal (z-score)", "setting": "[9]", "result": -0.291},
      {"measurement": "glycan array binding signal (z-score)", "setting": "[10]", "result": -0.281},
      {"measurement": "glycan array binding signal (z-score)", "setting": "[11]", "result": -0.267},
      {"measurement": "glycan array binding signal (z-score)", "setting": "[12]", "result": -0.281},
      {"measurement": "glycan array binding signal (z-score)", "setting": "[13]", "result": 0.265},
      {"measurement": "glycan array binding signal (z-score)", "setting": "[14]", "result": -0.042},
      {"measurement": "glycan array binding signal (z-score)", "setting": "[15]", "result": -0.174},
      {"measurement": "glycan array binding signal (z-score)", "setting": "Gal(a1-3)GalNAc", "result": -0.17},
      {"measurement": "glycan array binding signal (z-score)", "setting": "Gal(a1-3)GlcNAc", "result": 0.208},
      {"measurement": "glycan array binding signal (z-score)", "setting": "[16]", "result": -0.168},
      {"measurement": "glycan array binding signal (z-score)", "setting": "[17]", "result": -0.165},
      {"measurement": "glycan array binding signal (z-score)", "setting": "Gal(a1-4)Gal(b1-4)Gal", "result": 0.374},
      {"measurement": "glycan array binding signal (z-score)", "setting": "Gal(a1-4)Gal(b1-4)GalNAc", "result": 1.29},
      {"measurement": "glycan array binding signal (z-score)", "setting": "Gal(a1-4)Gal(b1-4)Glc", "result": -0.242}
    ]}
  ]
}
